# Test results as given in PubChem BioAssay AID1508624 (National Center for Advancing Translational Sciences (NCATS), 2021).
# Out of some 48,000 compounds screened, about 120 (0.25%) were called active. Not shown: some 4% with an inconclusive outcome. The call rests on the fitted dose curve; in most records, active means well fitted activation curve with a large enough effect; inconclusive means small, poorly fitted or top-dose-only effect, or another doubt; inactive means no such curve, though single readings can be large or run the other way. The list shows a part of the results.
# Experiment: Primary qHTS for Identification of Small Molecule Activators of Huntingtin-Antisense Promoter Activity; further: nearly all actives have a fitted effect of over 55% in size
# Conditions: HEK293 HTT-AS promoter firefly luciferase reporter, 24 h; series mostly up to 57.5 µM; activity change, positive = activation: at the top concentration
# Procedure, shortened: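 Luminescence was read after Dual-Glo reagent and a 10 min room-temperature incubation. Values were normalized to vehicle (0% activity) and zero RLU (-100% activity). Reporter HEK293 cells had been exposed to compounds (up to 57.5 uM final) for 24 h.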
row,SMILES,"activity change, positive = activation"
1,COc1ccc(N2C(=O)CS(=O)(=O)C23C(=O)N(Cc2ccccc2F)c2ccccc23)cc1Cl (centres undefined),inactive: -25.3%
2,Cc1nn(C(C)C(=O)N2CCN(c3ccc(F)cc3)CC2)c(=O)c2c1sc1ccccc12 (centres undefined),inactive: -11.4%
3,CCn1cc(C(=O)NCCc2ccccc2)c(=O)c2cc(S(=O)(=O)N3CCCCCC3)ccc21,inactive: -32.4%
4,COc1ccc(Br)cc1CNC(=O)c1cc(=O)[nH]c2ccc(S(=O)(=O)N3CCCCC3C)cc12 (centres undefined),inactive: -29.8%
5,COc1ccccc1CNC(=O)CSc1nc(-c2ccc(OC)c(OC)c2)cc(C(F)(F)F)n1,inactive: -18.3%
6,CCOc1ccc(CCNC(=O)c2ccc3c(c2)N(Cc2ccc(F)cc2)CCS3)cc1,inactive: -5.37%
7,COC(=O)c1sccc1S(=O)(=O)N(CC(=O)Nc1cc(C)ccc1C)c1ccc(C)c(C)c1,inactive: -25.7%
8,Cc1ccc(N2CC(NC(=O)c3ccc(S(=O)(=O)N(C)C)cc3)CC2=O)cc1C (centres undefined),inactive: -14.9%
9,CCC(C)NC(=O)c1ccc2c(c1)sc1nc(-c3ccc(OC)cc3)cn12 (centres undefined),inactive: 14.6%
10,O=C(CSc1nc2c([nH]c3ccccc32)c(=O)n1-c1cccc(Cl)c1)N1CCCC1,inactive: -10.8%
11,O=C(Cn1cc(S(=O)(=O)Cc2cccc(Cl)c2)c2ccccc21)Nc1ccccc1C(F)(F)F,inactive: -13.3%
12,Cc1c(C)n(Cc2ccccc2)c2ccc(C(=O)NCC(C)c3ccccc3)cc12 (centres undefined),inactive: -17.3%
13,Cc1ccc(N2CCN(S(=O)(=O)c3nnc(NC(=O)c4ccccc4)s3)CC2)cc1,inactive: -3.99%
14,COc1ccc(N2CCN(C(=O)c3cc4c(=O)oc5ccc(C)cc5c4s3)CC2)cc1,inactive: -11.2%
15,CCOc1ccc(CCNC(=O)c2ccc(-n3c(C)cc4c3CCCC4)cc2)cc1OCC,inactive: -4.86%
16,CCOC(=O)CNC(=O)c1cc2c(=O)oc3ccccc3c2s1,inactive: 2.71%
17,CCOc1ccc(N2CC(NC(=O)c3ccc4c(c3)OCO4)CC2=O)cc1 (centres undefined),inactive: -10.5%
18,CCCCNc1nc2c(S(=O)(=O)c3ccc(C)cc3)nnn2c2ccsc12,inactive: -20.1%
19,CCOCCc1nnc(NC(=O)C(=O)c2cc(C)n(-c3ccc(C)c(C)c3)c2C)s1,inactive: 5.21%
20,O=C(Cn1cnc2nc3c(cc2c1=O)CCCC3)Nc1ccc(F)cc1Cl,inactive: -3.48%
21,O=C(Nc1ccccc1C(=O)OCc1cc(=O)n2nc(C3CC3)sc2n1)c1ccc(Cl)cc1,inactive: 33.7%
22,Cc1ccc(C)c(N2CCN(c3nc4ccc(C)cc4nc3-n3nc(C)cc3C)CC2)c1,inactive: -4.82%
23,Cc1cc(C)n(CCC(=O)Nc2ccc(Cl)cc2)n1,inactive: 2.87%
24,Cc1ccc(NC(=O)c2cccc3c(=O)c4c([nH]c23)CCCC4)c(C)c1,inactive: -30.6%

row,SMILES,"activity change, positive = activation"
1,CCOc1ccc(NC(=O)Nc2nnc(N3CCCCC3C)s2)cc1 (centres undefined),inactive: -12.3%
2,CCOC(=O)c1sc2ccccc2c1S(=O)(=O)Nc1ccc(OC)c(Cl)c1,inactive: -34.5%
3,Cc1ccc(NC(=O)Nc2nnc(SCC(=O)N(C(C)C)C(C)C)s2)cc1,inactive: -36.5%
4,COc1cccc(CNC(=O)c2c(C)nn(-c3ccc(F)cc3)c2-n2cccc2)c1,inactive: -25.4%
5,CCc1ccc2oc(-c3ccc(C)c(NC(=O)c4cc([N+](=O)[O-])ccc4N4CCOCC4)c3)nc2c1,inactive: -4.93%
6,CCCCc1ccc(-n2nc3ccc(NC(=O)c4cc5ccccc5o4)cc3n2)cc1,inactive: -29.6%
7,COc1ccc(C(=O)NCCSc2c[nH]c3ccccc23)cc1OC,inactive: -6.06%
8,Clc1ccc(CSc2ccc(-c3cccs3)nn2)cc1,inactive: 13%
9,CCC(CC)C(=O)N1c2ccccc2C(C)(c2ccccc2)CC1(C)C (centres undefined),inactive: -8.59%
10,CSc1ncc(C(=O)Nc2cc(C)cc(C)c2)c(-c2ccccc2)n1,inactive: -23.5%
11,COc1ccc(-n2c(=O)c3c4c(sc3n(Cc3ccc(F)cc3)c2=O)CN(C(C)=O)CC4)c(OC)c1,inactive: -31.8%
12,CC(=O)N1CCc2c(sc3c2c(=O)n(Cc2ccccc2)c(=O)n3Cc2ccc(Cl)cc2)C1,inactive: -7.14%
13,Cc1cc(C)c(Cn2c(=O)n(CCC(=O)NCCc3ccccc3)c(=O)c3ccccc32)c(C)c1,inactive: -6.98%
14,COc1ccc(OC)c(CCNC(=O)c2c(C)oc3ncn(CC(C)C)c(=O)c23)c1,inactive: -8.42%
15,CN1CCN(C(CNC(=O)c2ccc(F)cc2)c2ccc3c(c2)OCO3)CC1 (centres undefined),inactive: -2.36%
16,CCOCCCn1c(SCC(=O)Nc2ccccc2CC)nc2ccccc2c1=O,inactive: -7.89%
17,CCOC(=O)Cn1c(=O)oc2cc(S(=O)(=O)N3CCN(c4cccc(Cl)c4)CC3)ccc21,inactive: -12.4%
18,O=C(O)c1sc(Nc2ccccc2)nc1-c1ccccc1,inactive: -1.59%
19,Nc1ccc(C(=O)N2CC3CC(CN(Cc4ccccc4)C3)C2)cc1,inactive: 1.74%
20,COc1ccc(C(=O)c2ccccc2O)c(O)c1,inactive: 8.74%
21,CCC(=O)N1CCc2cc(S(=O)(=O)NC(Cc3ccccc3)C(=O)NCc3ccccc3)ccc21 (centres undefined),inactive: 3.38%
22,Cc1ccc(OCC(=O)Nc2ccc(OCc3cc(=O)n4ccsc4n3)cc2)cc1C,inactive: 23%
23,CCN(C(=O)CN1C(=O)c2ccccc2Sc2ccc(C(=O)OC)cc21)c1cccc(C)c1,inactive: -8.16%
24,CCCCNc1nc2c(S(=O)(=O)c3ccc(Br)cc3)nnn2c2ccsc12,inactive: -10.3%

row,SMILES,"activity change, positive = activation"
1,Cc1ccc(NC(=O)Cn2c(=O)n(Cc3nc(-c4ccccc4)no3)c(=O)c3ccccc32)c(C)c1,inactive: -9.2%
2,Cc1ccc(Nc2c(-c3ccccn3)nc3ccc(Br)cn23)cc1,inactive: 5.21%
3,CCC(=O)N1CCc2cc(Br)cc(S(=O)(=O)N3CCCC(C(=O)Nc4ccc(C)c(F)c4)C3)c21 (centres undefined),inactive: -34.6%
4,Cc1ccc(C(=O)N(Cc2ccc(N(C)C)cc2)CC2CCCO2)cc1 (centres undefined),inactive: -2.72%
5,Cc1nn(C(C)C(=O)NCc2ccc(OC(C)C)cc2)c(=O)c2c1sc1ccccc12 (centres undefined),inactive: -23%
6,CC(C)(C)NCC(O)COc1cccc2c1C[C@H](O)[C@H](O)C2 (some centres undefined),inactive: -2.03%
7,Cc1ccc2ccc3cc(C(=O)N4CCN(c5ccccc5F)CC4)nc3c2[nH]1,inactive: -18.5%
8,CCCCNC(=O)CCC(=O)NNc1nc2ccccc2c2nc(C)nn12,inactive: -2.29%
9,CC(CCc1ccccc1)NC(=O)CSc1n[nH]c(-c2ccccc2)n1 (centres undefined),inactive: -34.7%
10,COc1ccccc1NC(=O)c1c(-c2ccc(C)cc2)nnc2ccccc12,inactive: 3.95%
11,CCCn1c(=N)c(C(=O)NCC2CCCO2)cc2c(=O)n3cc(C)ccc3nc21 (centres undefined),inactive: -12.2%
12,Cc1cccc(-c2nc(SCc3cc(=O)c4c(C)cc(C)cc4[nH]3)n[nH]2)c1,inactive: -41.4%
13,COCCN(CCOC)S(=O)(=O)c1ccc(C(=O)Nc2sc3c(c2C(N)=O)CCCC3)cc1,inactive: -34.2%
14,O=C(Cn1ncc2c3ccccc3n(Cc3ccccc3)c2c1=O)NCCc1ccc(Cl)cc1,inactive: -13.5%
15,COc1ccc(S(=O)(=O)N2CCC(c3nc4ccccc4s3)CC2)cc1OC,inactive: -0.755%
16,CCCNC(=O)c1ccc2c(c1)N=C(CCC)c1ccccc1S2,inactive: -49.9%
17,COc1cccc(NC(=O)Cn2nc(N3CCN(c4ccccc4)CC3)ccc2=O)c1,inactive: -9.34%
18,O=C(Cn1nc2c(cc1=O)CCCC2)NCc1ccc(Cl)cc1,inactive: -32.2%
19,Cc1ccccc1Cn1ccn(-c2ccc(F)c(F)c2)c(=O)c1=O,inactive: 0.968%
20,CCOC(=O)CSc1nc2ccccc2c(=O)n1-c1ccc(C(=O)NCCOC)cc1,inactive: -3.7%
21,O=C(Nc1ccccc1C(F)(F)F)N1CCOc2ccc(Cl)cc21,inactive: -17.8%
22,Cc1ccc(N2C(=O)CS(=O)(=O)C23C(=O)Nc2ccccc23)cc1C (centres undefined),inactive: -15.4%
23,CCOc1ccccc1-c1noc(CSc2nnc(-c3ccccc3)n2-c2ccc(OC)cc2)n1,inactive: -38.9%
24,CCOC(=O)N1CCC(NC(=O)c2ccc3c(c2)N(Cc2ccccc2C)C(=O)c2ccccc2S3=O)CC1 (centres undefined),inactive: -31%

row,SMILES,"activity change, positive = activation"
1,CN(Cc1nc(-c2ccc(Cl)cc2)no1)S(=O)(=O)c1ccccc1,inactive: -14.6%
2,COc1ccc(N2CCN(C(=O)Nc3cn(CC(C)C)c(=O)c4ccccc34)CC2)cc1,inactive: 11.9%
3,O=C(Nc1cc(Cl)ccc1Cl)c1ccc2c(c1)N(Cc1cccc(Cl)c1)C(=O)c1ccccc1S2=O (centres undefined),inactive: -11.5%
4,Cc1nn(-c2ccccc2)c(OC(=O)c2ccccc2)c1S(=O)(=O)c1ccccc1,inactive: -20.1%
5,COc1c(Cl)cc(C(=O)Nc2cc(-c3nc4ccccc4[nH]3)ccc2C)cc1Cl,inactive: -31.5%
6,Cc1ccc2oc(C(=O)Nc3c(C(=O)Nc4cccc(Cl)c4)oc4ccccc34)cc(=O)c2c1,"inactive: -0.84% [at 11.5 µM, percent change from vehicle, -100% = no light]"
7,CCOC(=O)c1c(C)oc2ncnc(Nc3cccc(C(F)(F)F)c3)c12,inactive: -1.65%
8,O=c1oc2ccccc2cc1-c1cn2cc(Cc3ccc(F)cc3)sc2n1,inactive: 21.1%
9,CCc1ccc(NC(=O)CC(NCc2cccnc2)C(=O)O)cc1 (centres undefined),inactive: -11%
10,Cc1ccc(OCC(=O)Nc2ccc(OCc3cc(=O)n4c(C)csc4n3)cc2)cc1C,inactive: 12.3%
11,CCOc1ccccc1Nc1sc(C(=O)c2ccccc2)c(N)c1C(=O)Nc1ccc(F)cc1,inactive: -8.49%
12,Cc1ccc(Cn2ccnc2SCC(=O)NCc2ccccc2)cc1,inactive: -12.3%
13,CSc1ccc(CCNC(=O)Cn2nc(C)n3c(cc4sccc43)c2=O)cc1,inactive: -6.77%
14,Cc1nc(-c2ccc(Cl)cc2)sc1CCNC(=O)C(=O)Nc1ccc2c(c1)OCO2,inactive: -2.65%
15,COc1ccc(CNC(=O)C(=O)NCC(c2ccco2)S(=O)(=O)c2ccc(Cl)cc2)cc1 (centres undefined),inactive: -27.4%
16,Cn1c(=O)c2c(nc(SCC(=O)Nc3ccccc3F)n2Cc2ccccc2F)n(C)c1=O,inactive: -2.12%
17,COc1ccc(N2CCN(CCCNC(=O)c3c(C)nn(-c4ccc(F)cc4)c3-n3cccc3)CC2)cc1,inactive: -35.3%
18,COc1ccc(S(=O)(=O)N(CC(=O)NC(C)c2ccccc2)c2ccc(C)cc2)cc1OC (centres undefined),inactive: -52.8%
19,CCc1ccc(NC(=O)Cn2nnc(-c3ccccc3N)n2)cc1,inactive: -11%
20,COc1ccccc1N1CCN(C(=O)c2cc3c(=O)n(Cc4cccs4)ccc3nc2C)CC1,inactive: -26.3%
21,CCOC(=O)N1CCc2c(sc3c2c(=O)n(-c2ccc(CC)cc2)c(=O)n3Cc2ccc(F)cc2Cl)C1,inactive: -20.5%
22,Cc1ccc(-n2ncc3c(NCCCn4ccnc4)ncnc32)cc1C,inactive: 18.8%
